According to the supplement of paper PMC10126150:
Sequences with one replicate were seen in a single cluster, so their values are uncertain.

System: ATP
Assay: switch fluorescence ratio, 500 uM ATP over buffer (Cy3 cluster intensity, sum of 5 cycles each) (fold (ratio)); higher = stronger signal-on switching upon ATP binding; sequences stand for … in TCGTCGGCAGCGTCAGATGTGTATAAGAGACAGTTTTTTTTTTTTTTTTTTTTTTTTT…TC
Settings: aptamer strand: ATP DNA aptamer (quencher-CACCTGGGGGAGTATTGCGGAGGAAGG + anchor), 100 nM annealed; ATP concentration: 500 uM; one replicate
Procedure, shortened: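 Switching-strand clusters labelled with Cy3 on a modified Illumina MiSeq flow-cell were annealed to 100 nM quencher-labelled ATP aptamer, imaged in selection buffer, and re-imaged after 15 min with 500 uM ATP at 22 °C. This was done over five cycles with NaOH stripping and re-annealing in between. The fluorescence ratio is summed target-cycle over summed buffer-cycle Cy3 intensity per cluster, averaged per switch-domain sequence, excluding clusters outside 100-1000 RFU.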
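Also: ATP exposure 15 min at 22 °C before imaging.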

Sequence	switch fluorescence ratio
AAGTATGAGC	1.02
CTAATGATT	1.02
GGGGGGCC	0.986
AGTCGGTTGA	1.04
ATAACTATAT	1.06
GATGGCTGCA	0.994
TCCGGTATGG	1.02
AGGCGACTGC	0.998
ATCACAACTT	1.04
GTCTTTTTGG	0.946
GGAATGAGCG	0.976
TTAGCCTTGT	1.02
AATACACTTC	1.04
ACAGTAAATG	1.02
ATTCATGTAA	0.987
GTTTATGATT	1.02
CGGGTCCTTT	0.94
AGCATAGCGG	0.953
ACTTCTTGGT	0.996
CTTGCACTGA	1.02
GAGAGTTTGC	0.957
CGGAGAACAT	0.987
GGATATGTAA	1.01
AAATATGTCT	0.957
GGGACATACA	1.23

Sequence	switch fluorescence ratio
TGGTAAACCA	1.12
CTCGGCACAA	3.07
AGGTGTGTTA	0.976
TAGTCCGTTG	1.01
TCTGGAAGCA	1.32
TTCAGAAACT	1.07
ATAAAAATAC	0.977
ACGTTGAAAT	1.05
TTTTATGTGC	0.994
GGGGGGTAT	1.02
GACGAGGGTC	1.02
GAACGGAAGA	1.09
CTCGTACGTC	0.99
AGGATTTAG	1.03
TGTATGATG	1.01
ATCTTGATAC	1.01
TAGCTACTAA	1.02
AGGAATTTGC	0.966
GCTTGAACAA	0.993
GCGGGGTAGA	1.05
ATTTGGGACC	1.05
TCAGCGCTTA	1
ACCTTTTTT	0.96
CTAGGATACG	0.982
TGTGCCTCGG	0.991

Sequence	switch fluorescence ratio
AGCGATGGTA	1.03
GAGCATTTGT	1.02
GGGGACCTGT	0.945
GAATGTCATT	1.01
GACGCTTGGA	1.1
CACGGCTGAC	1.4
TACAAATTTG	0.977
CACCCGCGGA	1.05
GTATGGGTAG	1.01
AAGTATTAAT	0.965
GTTTAAGTCA	1.01
ATCGTACCTC	1.09
ACATCACCGA	1.25
TCGTTCAACG	0.936
ACGATCACGC	1.29
GTGAACAAGC	0.973
AAGGCGCGCT	1.04
AGGCGCAAGG	1.08
CTCTTCGGTA	1.04
TTGTAGAGGT	1.02
ATGCGTAGCC	1.03
AAGTATTCTT	1.03
GTCGTTCCCT	0.958
CAGGACAGCA	1.06
GCGTCGCTGT	1.04

Sequence	switch fluorescence ratio
GCCATACCAT	1.01
GCGCTTACCA	1.02
GAGGGTATG	1.03
CACGGGTGGT	1.1
TGTCGAATAC	2.1
GTCTTGGCGA	1.05
GACGGATTTT	0.978
CCCTCCTTTG	1.04
CTGGTCCGAA	0.992
GGAGTTTTGC	0.972
GAATGAAGGG	1.01
CATGTACTCT	1.08
TGCATGTACT	1.2
TGTCTAAGGT	1.03
GCTGATTCGT	0.957
AGGTGGGAGG	0.979
CGCCCCGGCT	0.992
GAAAACGGCC	1.03
TCTCATAAAT	1.02
CGTTGCGATT	1.03
GAGTGTGGGA	1.01
GACAAATTTT	0.964
GTCAGCGTGC	0.995
TTTTCTTGCT	0.993
TCCTTTAGCG	1.21

Sequence	switch fluorescence ratio
CTCATTTTTT	1.04
GTCCAAGTAA	1.05
GATACCGGTC	1.08
GGCACCATGA	0.999
AAGGTCTATA	0.991
CCTGTAACGA	1.06
TCATGACACG	1
TTTGACCGAG	1.05
CACTGGAACG	0.958
CGGCTAGACC	1.08
GGGGGACGAG	0.91
ATACGGCGT	0.995
GGATATTTTC	0.986
CAACAACCT	1.31
TAAACAATGG	1.17
AGTCACGCGA	1.24
CGGCATTGGT	1.05
TTGTGCTCGT	1.01
AAAGCATGAA	1.05
CTCTGCAGGG	2.3
TTTGACCAGC	1.04
TATCATAGTT	0.999
TGGGTCCAGA	0.966
GTGTCCCTCA	0.979
GCTGGAAGAG	0.992

Sequence	switch fluorescence ratio
CTCGTCTAGC	1.06
ACCCGTGAGA	1.03
AAGGTTCGTT	1.01
AGTCCGGCAC	1.04
CTATCCGCTG	3.45
AGGCGGTTCG	0.989
CAAGACGTCG	0.948
TTGGTCCCGC	1.03
ATATTTCAGA	1.03
GGGACACGCA	1.11
TGGGGGACCA	1
TCAGCGCGTT	0.996
GGTGAAAATA	0.977
GCATCGGGCA	1.03
TGAGCTACGA	1.02
CCGAGTATAT	2.96
TGGGAAAACA	1.01
AATGCGGAAT	1.03
GTTAGGATAA	1.01
TCCTCGCAGG	1.03
GCTACACGAT	1.19
ACGATAGATT	1.05
TACAGAGGCT	1.01
GGGGTCCCTC	0.984
TAAGTCAAAA	0.952

Sequence	switch fluorescence ratio
ATGCGTTTAC	1.12
GGATTATTTC	0.983
CTGGAAAATT	0.932
TCCTCAGTGG	1.16
CCGGGGTGCC	1.05
CGTTCTTAAA	0.968
GACGCTGCGC	1.2
AAGTGATAA	1.02
TATTGACATA	1.06
TTAACAGAGG	0.969
ATAATAGTGA	0.968
CTACCATTGG	0.968
ATTGGGACTA	1.03
CATGACGCA	1.14
AGATGTGCCC	0.972
AGGAGAGACT	1.01
CCACATGGCA	1.01
CCGCGTCCAA	2.5
CTTTGCCTTT	1.51
ACATTGCTGT	0.991
GGGTCTTTGC	0.987
GAAGGGATGA	1.02
GTTGCACCTG	1.01
GGGTCAC	0.974
CACGCGGTGC	3.05

Sequence	switch fluorescence ratio
CATCTGGGGT	1.02
TTAGTCGCGT	1.02
GATGCCGCGA	3.22
TACCCGTTGT	1.08
CAGCGCAGGG	1.12
GCTGACGCGG	1
TAGTTCCGAG	1.18
GGTAATTTCC	1
CGCGGGGGAA	1.05
ACGAAAGGGT	1.05
TGTCAGTCGG	1.05
AGCCGAGAAC	1.08
TTCTCCGAGG	1.09
AAACCCGAGC	1.1
TCCGCTTGGG	1.21
TAGGTACCGT	1.02
GCAATTGCGT	0.994
GTGACGGTAG	0.971
TTTTGTTAAC	0.991
CAAGTATAGA	1
TAACCTCGGG	0.983
CGTGCTTACC	1.07
GCAAGAGAAG	0.952
TACACGTGTA	0.996
TGATAACTAG	0.96
